Data taken from the supplement of paper PMC3334620.
In all, about 33,000 sequences were measured (“E-score (-0.5 to 0.5)”: median about -0.017, highest 2% from about 0.3 on). This is one part of the list.

Molecular target: T1, Sut1 (UniProt P53032)
T1 sequence: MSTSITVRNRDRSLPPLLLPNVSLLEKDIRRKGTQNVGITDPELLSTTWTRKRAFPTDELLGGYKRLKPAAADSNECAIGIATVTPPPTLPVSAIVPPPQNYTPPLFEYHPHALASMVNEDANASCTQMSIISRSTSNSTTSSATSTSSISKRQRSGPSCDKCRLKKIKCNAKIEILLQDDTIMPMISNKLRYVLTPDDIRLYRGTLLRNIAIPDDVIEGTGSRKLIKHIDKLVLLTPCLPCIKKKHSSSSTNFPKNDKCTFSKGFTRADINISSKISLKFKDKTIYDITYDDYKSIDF
Assay: PBM E-score (8-mer binding enrichment) (E-score (-0.5 to 0.5)); higher = stronger / more preferred TF binding; most listed sequences are background and not binding sites
Conditions: protein concentration: 200 nM; construct: GST-full length
Outline: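 Universal all-10-mer Agilent arrays, double-stranded by primer extension on fresh or once-stripped slides, were probed with about 100-200 nM GST-tagged yeast transcription factors made by PURExpress. Fluorescent anti-GST detected bound protein, and masliner normalised the scans. E-scores from the Universal PBM Analysis Suite were given to each ungapped eight-base word pooled with its reverse complement.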

Sequence	PBM E-score
GCCATAAA	-0.00966
GGTAAACC	-0.083
GTTATAAC	-0.0927
ATAACTCG	0.149
CCCAAGAA	0.111
GATGGATA	-0.0501
ACCTTACT	0.163
TAAGGCGA	-0.0658
AACAGAGT	-0.014
GTACGTAA	0.0496
AATGCGAA	0.0115
AGTCTCTC	-0.17
GTCTCGAA	-0.159
AAACAATA	0.258
TATCTTGA	0.16
CAGCAAAG	-0.0349
ATTGGCAG	-0.13
ACGCTGCC	-0.224
CAAACACG	-0.0307
GACTAGAC	-0.142
GCCGTTCC	-0.134
TGCGCTAA	0.00494
GTTACGAA	0.171
ACGTGCAA	-0.143
GAAACCAC	0.0155

Sequence	PBM E-score
CAGCCCGC	-0.233
AAATTCTT	0.0691
GGCTCCTA	-0.279
TACAAGGA	0.116
CTTCACCC	0.139
CAGGGGAC	-0.219
CGATGGCG	-0.0469
AATCCGGT	0.258
TATCTGCA	0.064
ACCTCCCG	-0.167
CAAGAGCC	-0.0371
CTTGAACA	0.0785
AAGCCGGA	0.331
AACGTCGC	-0.201
GGTGCATA	-0.18
CTGTAAGC	-0.161
CAAGATCG	0.0609
CTGTGGAA	0.0386
CACTGGGC	-0.0944
GCTAATCC	-0.0586
ATGTAATA	0.307
GCGGACCA	0.175
TTGAGAAA	0.228
TAATGCGA	-0.0147
CTTTCACC	0.127

Sequence	PBM E-score
AGTACACC	0.0346
CGCAGCTA	-0.0718
ATATACCG	0.166
ACAGCTTG	-0.18
CTGCCAGA	-0.113
ACTCCACT	-0.144
ACCGTCCG	0.0131
CCACTCTA	-0.144
GACACTCA	-0.144
AATTTTCA	0.192
CTGCTGGC	-0.272
AAATATTT	0.31
CACACGCA	-0.271
CACACCGG	0.0539
GGTAACAC	0.0853
GGTCCTGA	-0.158
CAGTGGTC	-0.165
CCGGTGCG	0.132
CAGTCACG	-0.15
CCTTATAC	-0.114
CCTGGTAG	-0.308
CAAACCAG	0.0367
CCCGAACC	0.113
CCTAAGCC	-0.144
ATAGCGCA	-0.0575

Sequence	PBM E-score
CGTGTATA	0.14
ACAATCAT	0.182
AGTGAATG	0.13
AAGCGAAG	-0.0381
ATGTCTTG	0.00936
TACGATCA	0.0937
GCGCAAGA	-0.0208
CCCTGAAC	-0.0717
GACTCTTA	0.105
CTCTGAGA	-0.0987
CCATGGCC	-0.313
CATCCAGC	-0.174
GGCGGAAC	-0.0912
AGGCGTCC	-0.117
GAGCTAGA	-0.0226
AACAAAAG	0.217
AGACCTAT	0.0655
CCTATTGA	0.101
AAGCCCAT	-0.187
AACATCAT	-0.0156
AAGGCCAA	-0.21
GCTCACCC	-0.144
CTGCCTTC	0.00298
GATGAGAC	0.0573
CTTACTAA	0.0616

Sequence	PBM E-score
CGCGAAAG	-0.0215
CGGGTCAG	0.0298
ACTAACCC	0.00259
GACGGAGA	0.277
TCGTGTAA	0.0513
AGTCATCG	-0.0677
ATTGCCCA	-0.133
CTGAGAAG	-0.0719
TGACGCCA	-0.149
CATATGGA	-0.00932
CCTACACC	-0.128
GCCTTAGA	-0.264
GAGCCGAC	-0.315
CGCCTATA	-0.0666
AAATTAAT	0.292
AGCTCTGC	-0.337
TGTACAAA	0.129
CTGTATAA	0.164
AGAGTTAG	0.0158
AATGTAGA	0.237
AGCTTGCG	-0.265
ATTCATAG	0.132
CCGGAGCA	0.307
ACCGAACA	0.121
CAATTGGC	-0.0753

Sequence	PBM E-score
GCTTGTAC	-0.0476
TCCATTAA	0.11
GCGCCAGA	-0.088
TTAGCAAA	0.178
GTATCCAC	-0.103
AAAGTGCG	0.19
GACATAGA	-0.0501
TACCGCCA	0.00318
CGTATGCC	-0.114
CTCAAAAG	-0.0421
TGTAATAA	0.315
CGCGTTCC	-0.0272
ATTCGACC	-0.193
AACCTGTC	-0.187
CTGATGAA	-0.0846
AGTTGGGA	-0.0611
ATAGCCAT	-0.0463
GAGTGAGA	0.197
ATAGCTCG	-0.135
ACGACACA	-0.0399
CTACCAGA	0.0705
CGCAGCCA	-0.117
ATGCGTAC	0.0945
TCACAAGA	-0.00052
CGCCGAAC	0.215

Sequence	PBM E-score
GTTTGCGA	0.106
ATAACCGA	0.178
CAAGGTGA	-0.137
ATATGTCA	0.0284
GCAGTGCC	-0.197
CGGCAGAA	-0.0911
GGTCACGA	-0.0666
TGGAACCA	-0.0524
CAGCGAGG	-0.225
AAACGATT	0.231
GCATCTGA	-0.204
CAAGTAAG	0.0132
ACGAACCA	0.222
CCATTTGC	0.0098
AGATTCCT	-0.0965
GCCTATAC	-0.171
CAAAGCTC	-0.148
GAGTAGAC	0.0758
CCAAACAG	-0.205
AGTGACAT	0.089
GCCAGGAA	-0.164
GAGCGCTA	-0.0699
AACGTAGG	-0.171
AACACGTA	0.191
GACCGTCC	-0.0565

Sequence	PBM E-score
CCATAGAC	-0.155
GTTATCCA	0.154
AATTCATA	0.209
CCAGTTAA	0.16
ACTCTGCC	-0.0777
CTGTTTAC	0.126
CTCCTAAC	-0.174
ACCGAGAA	0.229
ACGCACTG	-0.139
AAAAGACA	0.157
CCACGCGG	-0.0774
CCCATTAA	-0.0707
GAGTGGGA	0.0811
CATGGAAA	0.251
ACAGCAGG	-0.0678
AATCATCA	0.0376
ATGACGGA	0.252
GAAGCATA	0.0407
GCTATTTA	0.159
GAGACGGC	-0.113
CGGCACCA	-0.0188
CTATGTAC	-0.0441
AACTAATC	0.119
GGATCAGA	-0.0639
AATACCAA	0.214

Sequence	PBM E-score
GATTAAGA	0.199
AATATATC	0.322
AGGAAAAT	0.151
ATTACCAC	0.0799
AACTGACA	-0.137
GAAGCTTA	0.0895
TCTTTTCA	0.178
GAACGGTC	-0.228
AAGCCATA	-0.114
ACGCTCCC	-0.22
GGCTTTAC	0.113
ACCGGAGT	0.492
GACCACTA	0.0285
AATAGACA	0.0476
AAATTGCG	0.115
CTCTATGA	0.0486
AGGAGAAA	0.0526
GTGTACAA	0.0787
CTCTTAGC	-0.0725
ATGAACTC	-0.00357
ATCAGTCA	0.0575
GAATAACA	0.261
ATCTAGAT	0.043
ACAAGTCC	0.374
AGGTTTGG	-0.0802

Sequence	PBM E-score
CAGTGCCA	-0.284
GAAGGGTC	-0.121
GCCCTTAA	-0.153
CGACATCA	0.143
AGCGGCGC	-0.00117
AGATAGTA	0.225
GGGAGCCA	-0.238
GTGATCCA	-0.0945
GAACTACA	0.0512
CACTCGTC	-0.166
AGACATAT	0.169
AAAGCCGG	0.0415
CATCACAA	0.0759
TATCGCCA	0.0664
CCCGACGG	-0.0115
ATAAGTTC	0.261
ACAAGTCT	-0.161
TATCGACA	-0.063
CTAAGGGA	-0.102
TACGTGAA	-0.0149
AGCGGTCC	0.0314
AATGCCTG	-0.076
CTACTCAG	-0.195
GCGGCCTA	-0.238
CATGCCAC	-0.128

Sequence	PBM E-score
AACAAGAG	0.0573
CTTTCACA	0.228
AAAATTAA	0.221
AAGATGCA	0.041
CCGAGTCC	0.196
TAATTGAA	0.151
GATCCCGC	-0.0295
CGAGATCG	-0.0611
AATCCCAT	-0.147
CCAGCGCC	-0.212
AGACGAAA	0.148
ATAAATGA	0.216
CGCGTCCA	-0.207
GGATACCC	-0.131
CGCCTTTC	0.0174
ATGCACCA	-0.134
AACTTTAC	0.113
AAGCGAAT	0.0646
GCTTCTCA	-0.145
CCGGTAGG	-0.0706
AACTACTC	0.243
CCTCGGGA	-0.294
AGTCTTTC	0.0659
CACTCGGC	-0.0174
CCATATCA	0.0517

Sequence	PBM E-score
CGACCCGC	-0.273
AGCTTCAT	0.00711
GTTTTTTA	0.196
ACGCCTGG	-0.127
CATAATAG	0.16
GTACCACA	-0.0203
CGGGCAAC	-0.108
CTCCTGTA	-0.0581
CAAATAGC	0.116
CAGTGGCC	-0.197
CCCCTTGC	-0.385
ACGACCGC	-0.195
CTTATAAA	0.181
CGCAAACA	0.0526
TCAGAAGA	-0.253
ACTAGTTA	0.151
ACGGAACG	0.129
CCTAATAC	-0.0206
ATGGCTGC	-0.285
GTCTAGTA	0.0398
TATCCGGA	0.39
CCACAACG	-0.103
ATTCTTTA	0.253
GCCATGCA	-0.0215
CCGGGGCG	0.0839

Sequence	PBM E-score
CAATCGTG	-0.13
CATCCACG	-0.212
GCCGTAAA	0.154
AGTCATAA	0.0636
CTGGGAAA	-0.0965
AATCAGAC	0.0694
CAGAGCTG	-0.259
TCATCTAA	0.154
AGATGACA	-0.0995
GGAGAAAA	0.198
GCGCGCTA	0.0469
GTATCTCA	0.157
AGATTGCG	0.159
CACCGTCA	-0.171
AAGGTCGA	-0.174
GGTAGTAA	-0.0759
GGTCGAAC	-0.049
ACCTAGGC	-0.145
CATCAGTC	-0.111
ACGTGGAT	-0.165
ACCCCAAC	-0.0979
ACGCAGTG	-0.122
CCGAATAG	0.119
ACAAAGAC	0.0725
CTCTAAGC	0.033

Sequence	PBM E-score
GCTGTGTA	-0.121
CATAGGGA	-0.0219
CCCCCTCA	-0.432
CCACACTC	-0.0546
ACTCTGCT	-0.0559
ATGCGAGC	-0.151
ATACAAAA	0.288
ACACTTTC	0.0477
GCACGTAC	-0.266
CCTTTTAG	-0.218
AAATTGAC	0.159
ATATATAA	0.351
ATGTCTCA	0.0455
CCCGTATA	-0.0438
AGTTACTC	0.142
ACTGTGTA	0.0481
ATATTTTG	0.22
ACGCTATA	-0.103
TCCTACGA	-0.185
